PubChem BioAssay AID463173 (ICCB-Longwood Screening Facility, Harvard Medical School, 2010)
About 1,700 (3.3%) of roughly 52,000 compounds were called active. No stated cut-off is given here; in the data, active means survival mostly below about 52% (no sharp cut-off); inactive means mostly above about 56%. The list shows a part of the results.

Each molecule was assayed on Wild type (assay: growth inhibition of S. aureus wild type versus tarO mutant, primary screen, teichoic acid synthesis inhibitors, RN4220, OD600 (AID 463173)). Details: S. aureus RN4220 wild type/DeltatarO growth, OD600, 18 h, stronger effect = lower value, screened at 18.75 µg/mL (by protocol).

Structure (SMILES) | survival
O=C(CCCn1c(=O)c2cccn2c2ccc(F)cc21)NCc1ccc(Cl)cc1 | inactive: 57%
CCc1ccc(NC(=O)C(=O)NCC(c2cccnc2)N2CCN(Cc3ccccc3)CC2)cc1 (configuration not stated) | inactive: 87%
COC(=O)CC1Oc2ccccc2-n2cc(-c3ccccc3)nc21 (configuration not stated) | inactive: 74%
CC1CCN(C(=O)CSc2c(C(C)C)cnc3c2c(=O)n(C)c(=O)n3C)CC1 | inactive: 120%
Cc1ccc(-n2nc(CO)c(C(=O)NC(C)CCCc3ccccc3)n2)cc1C (configuration not stated) | inactive: 112%
CCOc1ccc(CNS(=O)(=O)c2ccc3[nH]c(=O)ccc3c2)cc1 | inactive: 80%
CCCCOc1ccc(CNC(=O)c2ccc(NC(=O)N3CCCCc4ccccc43)cc2)cc1 | inactive: 65%
CC(=O)Nc1nonc1-c1nnc(SCC(=O)Nc2ccccc2)n1-c1ccccc1 | inactive: 51%
CCC(=O)Nc1ccc2nc(SCCOc3ccccc3)sc2c1 | inactive: 97%
CCOc1ccccc1NC(=O)CCc1c(C)nn(-c2ccc(N3CCOCC3)nn2)c1C | inactive: 74%
Cc1ccc(NC(=O)CSc2ncn[nH]2)cc1C | inactive: 73%
Cc1c(Cl)cccc1NC(=O)c1noc2c1CCCC2 | inactive: 74%
COC(=O)c1ccc(-n2c(CCC(=O)O)ccc2-c2ccc(C)cc2)cc1 | inactive: 72%
CCOC(=O)Cn1c(=O)n(CC2CCCO2)c2nc(-c3cccc(C)c3)nc(C(N)=O)c21 (configuration not stated) | inactive: 55%
CC1(C)CC(=O)C2=C(C1)OC(N)=C(C#N)C2C#Cc1ccccc1 (configuration not stated) | inactive: 101%
CCC(=O)N1c2ccccc2CC1C(=O)NCCN1CCN(c2cccc(C(F)(F)F)c2)CC1 (configuration not stated) | inactive: 119%
Cc1ccc(C)c(N2CCN(Cc3nnc(-c4ccc5c(c4)OCO5)o3)CC2)c1 | inactive: 68%
Cn1c(=O)oc2cc(S(=O)(=O)NC(Cc3ccccc3)C(=O)NCc3ccc(F)cc3)ccc21 (configuration not stated) | inactive: 91%
COc1ccccc1OC(C)C(=O)Nc1c(C(=O)c2ccc(Cl)cc2)oc2ccccc12 (configuration not stated) | inactive: 87%

Structure (SMILES) | survival
CCn1c(C)c(C)c2cc(C(=O)NCCCN3CCCCC3)ccc21 | inactive: 138%
Cc1ccc(N(CC(=O)NCc2ccc(F)cc2)S(=O)(=O)c2c(C)nn(C)c2C)cc1 | inactive: 87%
COc1cccc(CNC(=O)c2ccc3c(c2)nnn3C2CCCC2)c1 | inactive: 134%
COc1ccc(-n2nc(C(=O)Nc3ccc(C)cn3)c3c4ccccc4n(C)c3c2=O)cc1 | inactive: 74%
Cc1ccc(-n2cc(-c3ccccc3)nc2S(=O)(=O)CC(=O)Nc2ccc(F)cc2)cc1 | inactive: 80%
CCCCSCCCNC(=O)c1cn(C)c2ccc(S(=O)(=O)N3CCCCC3)cc2c1=O | inactive: 84%
CCN(CC)C(=O)Cn1c(=O)n(-c2ccc(OC)cc2OC)c(=O)c2c(C)c(C(=O)N(CC)CC)sc21 | inactive: 113%
CCc1c(C)nc2cc(-c3cc(OC)cc(OC)c3)nn2c1NCCCN(CC)CC | inactive: 107%
COc1ccccc1C(=O)Nc1nnc(SCc2cc(=O)c3cc(Cl)ccc3[nH]2)s1 | inactive: 83%
COc1ccc(OC)c(NC(=O)Cn2ccc3ccccc3c2=O)c1 | inactive: 68%
COc1ccc(NC(=O)c2c(-c3ccc(C)cc3)nnc3ccccc23)cc1Cl | inactive: 74%
O=C(CNC(=O)c1ccccc1F)OCc1cc(=O)n2ccsc2n1 | inactive: 102%
Cc1ccc(C)c(N2CCN(C(=O)C3CCCN(S(=O)(=O)c4cccc5nsnc45)C3)CC2)c1 (configuration not stated) | inactive: 73%
O=C(NCc1ccco1)C(Sc1ccccc1)c1ccccc1 (configuration not stated) | inactive: 100%
O=S(=O)(c1ccccc1)c1nc(-c2ccc(Cl)cc2Cl)oc1N1CCCCC1 | inactive: 57%
COc1ccc(C)cc1NC(=O)Cn1c(=O)cc(C)c2c(C)nn(C)c21 | inactive: 68%
Cc1ccc(CN2CCN(C3CCN(C(=O)c4ccccc4)CC3)C(=O)C2=O)cc1 | inactive: 78%
Cc1nc(-c2ccc(Cl)cc2)sc1CCNC(=O)Cc1ccc(F)cc1 | inactive: 120%
Cc1ccc(C(=O)Nc2cccc(O)c2)cc1S(=O)(=O)N1CCCCCC1 | inactive: 92%

Structure (SMILES) | survival
O=C(NCC1CCN(S(=O)(=O)c2ccc(Cl)cc2)CC1)C1CCCO1 (configuration not stated) | inactive: 87%
CCN(CC)CCCNC(=O)c1cn(CC)c2ccc(S(=O)(=O)N3CCc4ccccc4C3)cc2c1=O | inactive: 118%
COc1ccc(-c2nc(SCC(=O)N3CCN(c4ccc(F)cc4)CC3)n[nH]2)cc1 | inactive: 85%
CCCCOc1ccc(CNC(=O)Cc2ccc(NC(=O)N3CCCCc4ccccc43)cc2)cc1 | inactive: 75%
COc1ccc(CCNC(=O)c2ccc3c(c2)N(Cc2cc(C)ccc2C)C(=O)c2ccccc2S3=O)cc1OC (configuration not stated) | inactive: 93%
O=C(NC1CC1)C1CCN(C(=O)c2ccc(Cl)cc2)CC1 | inactive: 110%
CC(C)(C)OC(=O)N1CCC(c2c(C(=O)N3CCN(c4ccccc4)CC3)cnn2-c2ccccc2)CC1 | inactive: 71%
CCOC(=O)c1c(Nc2ccc(F)cc2)nnc(-c2ccccc2)c1-c1ccccc1 | active: 1%
O=C(Oc1ccccc1)c1ccc(F)cc1 | inactive: 102%
CCn1c(=O)n(-c2ccc(F)cc2)c(=O)c2sc3ccccc3c21 | inactive: 89%
CCCN(C(=O)c1cc2ccc3cccnc3c2[nH]1)c1ccc(F)cc1 | inactive: 80%
O=C(c1ccccc1Cl)N(Cc1ccco1)c1ccccn1 | inactive: 80%
CCSc1ccccc1C(=O)NCCCn1ccnc1 | inactive: 101%
Cc1cc(Br)ccc1NC(=O)Cn1cnc2sc(C)c(S(=O)(=O)N3CCN(C)CC3)c2c1=O | inactive: 143%
COC(=O)c1sc2cccc(F)c2c1S(=O)(=O)Nc1ccc(N(C)C)cc1 | inactive: 53%
Nc1c(NCCN2CCOCC2)c2ccccc2oc1=O | inactive: 103%
CC(=O)N1CCC2(CC1)OC(=O)C(C)=C2C(=O)Nc1cc(C)ccc1C | inactive: 84%
CCOC(=O)c1cc(-c2ccc(C)cc2)n(CC(=O)Nc2ccccc2F)c1C | inactive: 102%
CC(=O)Nc1ccc(-n2c(CCC(=O)O)ccc2-c2ccc(Br)cc2)cc1 | inactive: 80%
